Results on one molecule are retold here after article PMC3417418 (2012).

Assay [1] concerns the target T1, CXCR3 (Homo sapiens, UniProt P49682).
T1 chain: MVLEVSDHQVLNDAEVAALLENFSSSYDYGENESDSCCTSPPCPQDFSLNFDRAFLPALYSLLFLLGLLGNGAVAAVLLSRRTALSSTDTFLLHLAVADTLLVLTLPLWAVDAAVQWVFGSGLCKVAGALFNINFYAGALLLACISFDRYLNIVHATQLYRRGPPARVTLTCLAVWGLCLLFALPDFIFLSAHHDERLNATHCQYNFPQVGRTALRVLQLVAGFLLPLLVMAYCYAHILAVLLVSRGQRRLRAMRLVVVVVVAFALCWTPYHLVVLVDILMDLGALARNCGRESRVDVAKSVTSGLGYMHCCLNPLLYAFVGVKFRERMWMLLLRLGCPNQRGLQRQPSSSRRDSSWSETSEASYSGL
Briefly: competition with 125I-CXCL10 on L1.2 cells.

Assay [2] concerns the target T2, CXCR3 (Homo sapiens, UniProt P49682).
T2 chain: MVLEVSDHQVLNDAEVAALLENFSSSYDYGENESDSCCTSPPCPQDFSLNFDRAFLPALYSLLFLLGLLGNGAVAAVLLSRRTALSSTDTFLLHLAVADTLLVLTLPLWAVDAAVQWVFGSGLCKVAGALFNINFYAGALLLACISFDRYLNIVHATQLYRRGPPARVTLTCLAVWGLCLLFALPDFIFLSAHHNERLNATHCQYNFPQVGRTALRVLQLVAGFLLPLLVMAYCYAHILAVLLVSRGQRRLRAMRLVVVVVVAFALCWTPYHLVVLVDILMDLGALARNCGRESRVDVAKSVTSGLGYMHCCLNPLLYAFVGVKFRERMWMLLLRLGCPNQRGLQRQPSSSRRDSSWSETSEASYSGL
Briefly: homologous competition 125I radioligand binding on L1.2 cells.

Assay [3] has as its target T3, CXCR3 (Homo sapiens, UniProt P49682).
T3 chain: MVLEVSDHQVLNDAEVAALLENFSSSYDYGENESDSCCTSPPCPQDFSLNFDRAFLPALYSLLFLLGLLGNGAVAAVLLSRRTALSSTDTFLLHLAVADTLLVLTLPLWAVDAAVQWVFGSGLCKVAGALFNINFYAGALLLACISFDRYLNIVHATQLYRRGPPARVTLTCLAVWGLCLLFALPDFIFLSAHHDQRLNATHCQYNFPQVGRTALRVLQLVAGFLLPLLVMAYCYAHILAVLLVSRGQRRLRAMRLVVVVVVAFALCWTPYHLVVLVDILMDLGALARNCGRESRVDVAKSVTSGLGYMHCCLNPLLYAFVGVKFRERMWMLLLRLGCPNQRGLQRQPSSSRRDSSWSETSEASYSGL
The description is as above.

Assay [4] concerns the target T1, CXCR3. The assay is described as above.
Assay [5] has as its target T4, CXCR3 (Homo sapiens, UniProt P49682).
T4 chain: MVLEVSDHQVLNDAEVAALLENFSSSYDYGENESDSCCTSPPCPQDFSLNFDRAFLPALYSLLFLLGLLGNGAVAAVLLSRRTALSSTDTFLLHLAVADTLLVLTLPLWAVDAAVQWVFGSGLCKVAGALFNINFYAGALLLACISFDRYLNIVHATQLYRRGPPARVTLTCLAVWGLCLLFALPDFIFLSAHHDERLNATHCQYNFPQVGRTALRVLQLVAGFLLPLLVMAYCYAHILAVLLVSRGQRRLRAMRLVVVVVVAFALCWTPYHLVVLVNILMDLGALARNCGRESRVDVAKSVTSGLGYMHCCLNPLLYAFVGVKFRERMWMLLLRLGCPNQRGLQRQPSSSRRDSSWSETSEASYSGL
The assay is described as above.

B1: CXCL10 (protein)
chain: not shown
Usually IC50 stands for the concentration that inhibits the measured activity by half. Read a low IC50 as greater potency. For orientation: Kd means the constant that tells how readily two partners part at equilibrium. Read a low Kd as higher affinity. In the assay with CXCR3 [1], B1 registered an IC50 of 2 nM. The Kd with CXCR3 [2] is 4.7 nM; with CXCR3 [3] it was 7.6 nM; with CXCR3 [4], 4.7 nM; with CXCR3 [5] it was 30.9 nM.
